Screen size: about 360,000 compounds; about 2,600 (0.72%) were called active. This list was built around the results that the source calls inconclusive (neither active nor inactive); the mix of calls is not that of the screen. The call rests on the fitted dose curve; in most records, active means well fitted inhibition curve with a large enough effect; inconclusive means small, poorly fitted or top-dose-only effect; inactive means no such curve, though single readings can be large or run the other way. Potencies of inconclusive entries are doubtful fits and often do not repeat.
assay: Primary qHTS for Inhibitors of ATXN expression; conditions: HEK-293 ATXN2-luciferase reporter, luminescence, 24 h; activity change, negative = inhibition: at 57 µM (top of the series); further: nearly all actives have a fitted effect of over 55% in size
Procedure, shortened: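 qHTS (up to 57 uM final) was run with 24 h compound exposure of reporter cells at 37 °C. Each well was multiplexed: SteadyGlo luminescence measured ATXN2-luciferase expression after a fluorogenic Gly-Phe-AFC viability readout (25 uM final).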
On the % scale 0 is the no-effect control and ±100 the full control effect; potency means the concentration at half of the fitted maximal effect; tags describe the fitted curve by direction and shape.

Compound | Potency | activity change, negative = inhibition
CCCCC(=O)NC(c1ccc(N(C)C)cc1)c1ccc2cccnc2c1O (configuration not stated) | inconclusive: 11.2 µM [inhibitor, partial curve, poor fit] | 
O=C(C1=C[C@@H](C2CCCCC2)C[C@@H](OCCCCO)O1)N1CCN(Cc2ccc3c(c2)OCO3)CC1 | inconclusive: 39.8 µM [inhibitor, single point] | 
CN1CCN(S(=O)(=O)c2ccc(Sc3nnc(-c4cccs4)n3-c3ccccc3)nc2)CC1 | inconclusive: 35.5 µM [inhibitor, partial curve, poor fit] | 
O=C1c2ccc3c4c(ccc(c24)C(=O)N1CCCCO)C(=O)N(CCCCO)C3=O | inconclusive: 13.4 µM [inhibitor, single point] | 
O=C(NCC(=O)N1CCN(Cc2ccccc2)CC1)c1ccc(Br)cc1 | inconclusive: 35.5 µM [inhibitor, partial curve, poor fit] | 
COc1cc(OC)c2c(-c3ccccc3)cc(=O)oc2c1C(CCN1CCOCC1)c1ccc2c(c1)OCO2 (configuration not stated) | inconclusive: 28.2 µM [inhibitor, single point] | 
COc1ccc(/C=C/C(=O)Nc2cccc(S(=O)(=O)N3CCCC3)c2)cc1OC | inconclusive: 28.2 µM [inhibitor, single point] | 
CCc1nc(SCC(=O)c2ccc3c(c2)OCCO3)c2ccccc2n1 |  | inactive: -18.3%
CC(C)(C)c1ccc(C(=O)Nc2ccc(C(=O)NCc3cccnc3)cc2)cc1 |  | inactive: -21.6%
O=C(/C=C/c1ccccc1O)c1ccccc1 |  | inactive: 6.38%
Cc1ccc2nc(SCC(=O)N3CCC(Cc4ccccc4)CC3)nc(=O)n2c1 | inconclusive: 25.1 µM [inhibitor, partial curve] | 
O=C1NC(Cc2ccc(O)cc2)c2nc3ccc(Br)cc3c(=O)n2-c2cc3ccccc3cc21 (configuration not stated) | inconclusive: 17.8 µM [inhibitor, partial curve, poor fit] | 
COc1ccc(S(=O)(=O)N(C)C[C@H]2Oc3ccc(NC(=O)Nc4ccc(C(F)(F)F)cc4)cc3C(=O)N([C@H](C)CO)C[C@@H]2C)cc1 | inconclusive: 11.2 µM [inhibitor, partial curve] | 
Nc1nc(=O)n(C2CC(O)C(CO)O2)cc1F (configuration not stated) | inconclusive: 0.0095 µM [inhibitor, full curve, poor fit] | 
O=C(/C=C/c1ccco1)Oc1cc(Br)cc(/C=N/NC(=O)c2ccccc2O)c1 | inconclusive: 1.26 µM [inhibitor, full curve, poor fit] | 
CC(C)(C)n1ncc2c(=O)n(Cc3c(Cl)cccc3Br)cnc21 | inconclusive: 28.2 µM [inhibitor, single point] | 
Cc1ccnc2nc(C(=O)OCCOc3ccc(Cl)cc3)nn12 | inconclusive: 8.91 µM [inhibitor, single point] | 
Cc1ccc2oc(C(=O)Nc3ccc(S(=O)(=O)Nc4nc(C)cc(C)n4)cc3)cc(=O)c2c1 |  | inactive: 0%
O=C(COC(=O)/C=C/c1ccc(F)cc1)Nc1ccccc1-c1ccccc1 |  | inactive: -18.7% [at 11.3 µM]
CC(=O)CCc1c(C)[nH]c2ccccc2c1=O |  | inactive: 4.36%
CCSC1(SCC)N=C(N)C2(C#N)C(c3ccc(F)cc3)C12C#N (configuration not stated) | inconclusive: 39.8 µM [inhibitor, single point] | 

Compound | Potency | activity change, negative = inhibition
COc1cc2c3nnc(-c4ccccc4)c-3cn(Cc3ccc(F)cc3)c2cc1OC | inconclusive: 9.47 µM [inhibitor, partial curve, poor fit] | 
Cc1cccn2c(Nc3ccccc3)c(-c3ccccn3)nc12 | inconclusive: 39.8 µM [inhibitor, single point] | 
Cc1ccc2c(=O)cc(C(=O)Nc3nc4ccc(Cl)cc4s3)oc2c1 |  | inactive: 10.9%
COc1cc(CNc2ccc3[nH]c(=O)[nH]c3c2)cc(Cl)c1OCc1ccc(F)cc1 | inconclusive: 39.8 µM [inhibitor, single point] | 
CC(C)(C)OC(=O)C[C@@H]1C/C=C\C[C@H](CC(=O)N(CCO)Cc2ccccc2)C(=O)NC[C@H](c2ccccc2)OC1=O |  | inactive: -3.85%
CCOC(=O)C1=C(CC)Nc2ccccc2N=C1NC(=O)c1oc2ccccc2c1C | inconclusive: 29.9 µM [inhibitor, single point] | 
CC(C)NC(=S)N/N=C/c1ccccc1[N+](=O)[O-] |  | inactive: 8.48%
Cc1cccc(NS(=O)(=O)c2ccc3c(c2)CCCN3C(=O)C2CCC2)c1C | inconclusive: 31.6 µM [inhibitor, single point] | 
O=C(c1cc2nc(-c3ccc(F)cc3)cc(C(F)(F)F)n2n1)N1CCCCC1c1cccnc1 (configuration not stated) | inconclusive: 26.7 µM [inhibitor, partial curve, poor fit] | 
CN(C)S(=O)(=O)c1cccc(CSCc2cccc(S(=O)(=O)N(C)C)c2)c1 | inconclusive: 0.891 µM [inhibitor, full curve] | 
CCc1ccc(N(CC)C(=O)c2cn(C)c(=O)c3ccccc23)cc1 |  | inactive: 28.9%
Cc1ccc(S(=O)(=O)N(C)C)cc1NC(=O)COC(=O)c1ccc2c(c1)OCCO2 | inconclusive: 26.7 µM [inhibitor, single point] | 
CCOC(=O)N1CCN(C(=O)C[C@@H]2C[C@@]3(C(=O)OC)CCCCC=C3N(Cc3ccc(Cl)cc3Cl)C2=O)CC1 | inconclusive: 39.8 µM [inhibitor, single point] | 
COC(=O)c1ccc(Cn2c(SCC(=O)N(C)c3ccccc3)nc3ccccc32)cc1 | inconclusive: 39.8 µM [inhibitor, single point] | 
O=[N+]([O-])c1cnc2nc(-c3ccncc3)nn2c1O | inconclusive: 15.8 µM [inhibitor, partial curve, poor fit] | 
CC(C)Cn1cc(C(=O)N2CCN(c3cccc(Cl)c3)CC2)c2c3ccccc3n(C)c2c1=O | inconclusive: 35.5 µM [inhibitor, single point] | 
CC(=O)N1CCCc2cc(S(=O)(=O)N3CCCC(C(=O)Nc4cccc(Cl)c4C)C3)ccc21 (configuration not stated) |  | inactive: -32.5%
Nc1nc2ccccc2n1Cc1ccc(Cl)c(Cl)c1 | inconclusive: 15.8 µM [inhibitor, partial curve, poor fit] | 
CCOc1cc2[nH]c(=O)n(CCCC(=O)N3CCN(c4cccc(Cl)c4)CC3)c(=O)c2cc1OCC |  | inactive: 3.58%
CCC(C)Sc1cc(C(F)(F)F)c(C(=O)Nc2ccc(Cl)cc2)cn1 (configuration not stated) | inconclusive: 39.8 µM [inhibitor, single point] | 
CCOC(=O)c1cc(S(=O)(=O)N2CCN(c3ccc(F)cc3)CC2)[nH]n1 |  | inactive: -6.93%

Compound | Potency | activity change, negative = inhibition
CCC(C)n1c(=S)[nH]c2c(sc3ccc([N+](=O)[O-])cc32)c1=O (configuration not stated) | inconclusive: 15.8 µM [inhibitor, partial curve, poor fit] | 
Nc1n[nH]c(-c2ccccc2)n1 |  | inactive: 1.97%
COc1ccc(OC)c(S(=O)(=O)Nc2ccc(Oc3ccccc3)cc2)c1 |  | inactive: -19.9%
CC(C)(C)c1ccc(CC(=O)N2CCC2(C)C(=O)Nc2cccc3c2CCCC3)cc1 (configuration not stated) | inconclusive: 28.2 µM [inhibitor, partial curve, poor fit] | 
COc1ccc(-c2csc3nc(-c4ccccc4F)oc(=O)c23)cc1OC | inconclusive: 7.94 µM [inhibitor, partial curve, poor fit] | 
CCCN(CC(=O)Nc1ccccc1C)C(=O)CCl | inconclusive: 33.6 µM [inhibitor, partial curve, poor fit] | 
CCCNC(=O)C1(C)CCCN(Cc2cccc3ccccc23)C1 (configuration not stated) | inconclusive: 39.8 µM [inhibitor, partial curve, poor fit] | 
CCOc1ccc(S(=O)(=O)N2CCCCC2)cc1NC(=O)CN1CCCC1c1cccs1 (configuration not stated) | inconclusive: 10 µM [inhibitor, partial curve, poor fit] | 
O=C(Nc1ccc(C(=O)N2CCC(O)(c3ccc(Cl)c(C(F)(F)F)c3)CC2)cc1)c1ccc(Br)o1 | inconclusive: 25.1 µM [inhibitor, single point] | 
CCC(=O)N1N=C(c2c(-c3ccccc3)c3cc(Cl)ccc3[nH]c2=O)CC1c1ccco1 (configuration not stated) | inconclusive: 29.9 µM [inhibitor, partial curve, poor fit] | 
COc1cc(NC(=O)c2cc(-c3ccccc3)on2)cc(OC)c1OC | inconclusive: 0.377 µM [inhibitor, full curve, poor fit] | 
CC(C)CC(=O)/C=C/n1c(=S)oc2ccccc21 | inconclusive: 31.6 µM [inhibitor, single point] | 
CC(C)CCNC(=O)Nc1cc(C(=O)NCc2cccc(F)c2)ccc1N1CCCC1 | inconclusive: 3.55 µM [inhibitor, full curve] | 
O=CNC1(c2ccccc2)CCCCC1 | inconclusive: 39.8 µM [inhibitor, partial curve, poor fit] | 
Cc1cc(OCCCCn2ccnc2)cc(C)c1Cl | inconclusive: 16.8 µM [inhibitor, partial curve, poor fit] | 
COc1cccc(-c2cc(C(F)(F)F)n3ncc(C(=O)NCC4CCCO4)c3n2)c1 (configuration not stated) | inconclusive: 2.51 µM [inhibitor, partial curve, poor fit] | 
COc1cc2c3nnc(-c4ccc(F)cc4)c-3cn(Cc3cccc(C)c3)c2cc1OC | inconclusive: 3.16 µM [inhibitor, full curve, poor fit] | 
CCCCCCCn1c(NC(=O)CC)nc2ccccc21 | inconclusive: 12.6 µM [inhibitor, partial curve] | 
O=C(COc1ccccc1)Nc1cc(S(=O)(=O)N2CCOCC2)ccc1N1CCCC1 |  | inactive: 0%
O=C(N/N=C/c1c[nH]c2ccccc12)c1cc(-c2ccc(-c3ccccc3)cc2)n[nH]1 | inconclusive: 39.8 µM [inhibitor, single point] | 

Source: PubChem BioAssay AID1745845 (National Center for Advancing Translational Sciences (NCATS), 2022)
